Data from PMC4336329 (PLoS ONE, 2015).
About 14,000 (4.5%) of roughly 310,000 compounds showed an effect of 50% or more. The effect is printed as a negative number. This is one part of the list.

Target: human ether-à-go-go-related gene (hERG) potassium channel (human, UniProt Q12809)
Assay: primary screen, population patch clamp on CHO cells stably expressing hERG
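Note: peak tail current of the secondary pulse compared with the same well before compound.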

human ether-à-go-go-related gene (hERG) potassium channel, sequence (Q12809 whole entry, looked up): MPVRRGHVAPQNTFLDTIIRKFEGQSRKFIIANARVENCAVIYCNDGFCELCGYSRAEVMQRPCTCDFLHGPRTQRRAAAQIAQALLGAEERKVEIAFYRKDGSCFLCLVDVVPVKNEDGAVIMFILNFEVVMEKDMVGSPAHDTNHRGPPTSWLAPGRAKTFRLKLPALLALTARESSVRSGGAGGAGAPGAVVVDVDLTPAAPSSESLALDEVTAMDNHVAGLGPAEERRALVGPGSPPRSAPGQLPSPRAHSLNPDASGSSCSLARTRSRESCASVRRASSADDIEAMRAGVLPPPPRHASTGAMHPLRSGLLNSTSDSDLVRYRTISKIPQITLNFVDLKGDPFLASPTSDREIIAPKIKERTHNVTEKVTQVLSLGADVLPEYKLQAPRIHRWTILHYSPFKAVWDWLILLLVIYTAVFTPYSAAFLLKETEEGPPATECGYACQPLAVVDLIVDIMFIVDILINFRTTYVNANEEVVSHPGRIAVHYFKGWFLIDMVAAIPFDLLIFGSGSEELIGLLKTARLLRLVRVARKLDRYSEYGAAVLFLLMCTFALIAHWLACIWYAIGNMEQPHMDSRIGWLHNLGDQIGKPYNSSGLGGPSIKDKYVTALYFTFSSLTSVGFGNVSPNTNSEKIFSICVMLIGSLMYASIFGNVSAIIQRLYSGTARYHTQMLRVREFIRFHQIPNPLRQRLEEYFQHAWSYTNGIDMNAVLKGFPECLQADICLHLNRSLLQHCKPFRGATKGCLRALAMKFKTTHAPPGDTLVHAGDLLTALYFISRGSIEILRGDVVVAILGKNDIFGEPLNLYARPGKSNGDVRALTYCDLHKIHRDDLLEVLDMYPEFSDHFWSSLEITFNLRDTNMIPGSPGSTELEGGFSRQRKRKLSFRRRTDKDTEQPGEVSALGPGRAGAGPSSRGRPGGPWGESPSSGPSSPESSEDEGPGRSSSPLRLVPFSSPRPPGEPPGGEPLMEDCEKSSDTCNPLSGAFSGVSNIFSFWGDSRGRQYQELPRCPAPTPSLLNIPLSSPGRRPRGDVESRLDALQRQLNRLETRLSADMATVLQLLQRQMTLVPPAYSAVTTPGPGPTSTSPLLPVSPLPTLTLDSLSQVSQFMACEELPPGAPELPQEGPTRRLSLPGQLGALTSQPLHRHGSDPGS

| SMILES | hERG current change (%, negative = inhibition) at 10uM |
| --- | --- |
| CCOC(=O)[C@H]1[C@H]2COc3ccc(C)cc3[C@@H]2N2C(=O)CN(Cc3ccc(Cl)cc3)C(=O)[C@@]12C | 1.93% |
| CC(OC(=O)CCOc1ccccc1)C(=O)NC1CC1 (centres unmarked) | 10.2% |
| CN(C)CCC1Sc2ccccc2Oc2ccccc21.O=C(O)C(=O)O (centres unmarked) | -24.8% |
| O=C(CCN1C(=O)c2ccccc2C1=O)Nc1nc2ccccc2s1 | -11.6% |
| CCN(CC)CCCNc1ncnc2scc(-c3ccc(F)cc3)c12 | -36.3% |
| O=C(Nc1ccncc1)C1CCC(CNS(=O)(=O)c2cccc3nsnc23)CC1 (centres unmarked) | -15.4% |
| Cc1ccc(O)c(NC(=O)c2onc(C)c2Cl)c1 | 29.7% |
| O=C(/C=C/c1ccccc1Cl)N(c1ccccn1)C1CCCCC1 | -14.4% |
| COc1cc(C(=O)N2CCN(c3ccccc3O)CC2)ccc1OCC(=O)N1CCOCC1 | 3.06% |
| Cc1ccc(-c2nc3ccccc3s2)cc1NC(=S)NC(=O)c1ccccc1 | 30.4% |
| O=C1/C(=C/c2ccc(Cl)cc2)NC(=S)N1Cc1cccnc1 | 15.5% |
| C=CCN(CC=C)C(=S)Nc1cc(Cl)ccc1OC | -0.181% |
| O=C(CCc1ccccc1)NC(=S)Nc1cc(C(F)(F)F)ccc1N1CCOCC1 | -5.19% |
| O=C(O)c1ccc(NCc2cccnc2)c([N+](=O)[O-])c1 | 30% |
| Cc1ccc(C2=NN(C(=S)Nc3ccccc3)C(c3ccco3)C2)cc1 (centres unmarked) | 21.9% |
| CC(NC(=O)CCNC(=O)c1ccco1)c1ccccc1 (centres unmarked) | -5.77% |
| Cc1c(CN2CCCCC2C)c(=O)n(-c2ccccc2)n1C (centres unmarked) | -8.98% |
| Cc1ccc(C)c(S(=O)(=O)N2CCCOC2CNC(=O)C(=O)NC2CCCCC2)c1 (centres unmarked) | 1.93% |
| Cc1nn(-c2ccccc2)c(C)c1/C=N/Nc1nc2ccccc2[nH]1 | -12.3% |
| C=C(C)COc1ccc(-c2[nH]ncc2-c2ccc(OC)cc2)c(O)c1 | 19.4% |
| CCOc1ccc(CN(C)C(=O)NNC(=O)c2ccc(C)cc2)cc1OC | 16.8% |
| C=CCn1c(O)c(C(C)=Nc2cccc(C(=O)O)c2)c(=O)[nH]c1=O | 1.4% |
| Cc1ccc(S(=O)(=O)N(C)c2ccc(OCC(=O)NCC3(N(C)C)CCCCC3)cc2)cc1 | -73.5% |

| SMILES | hERG current change (%, negative = inhibition) at 10uM |
| --- | --- |
| CCCCNC(=O)Nc1nnc(-c2ccc(OCC)cc2)o1 | 10.1% |
| CSc1ccc(S(=O)(=O)Nc2ccccc2C(=O)N2CCOCC2)cc1 | 5.5% |
| Cl.NCC12CC3CC(C1)CC(c1ccc(Cl)cc1)(C3)C2 | -14.1% |
| Cc1cccc(NC(=O)c2cc(NC(=O)CCCC(=O)O)ccc2Cl)n1 | 7.94% |
| O=C(CC(C(=O)O)c1cccc(Br)c1)c1ccc(Cl)cc1 (centres unmarked) | 9.2% |
| CCC(C)C1NC(=S)N(Cc2ccccc2)C1=O (centres unmarked) | -7.02% |
| CCCOC(=O)c1ccc(O)cc1 | 16.5% |
| O=C(CCl)c1ccc(Cc2ncc(C(F)(F)F)cc2Cl)s1 | -6.8% |
| Cc1cccc(-c2nnc(NC(=O)c3cccs3)s2)c1 | -21.7% |
| Cc1cccc(C(=O)NC(=S)NNC(=O)COc2c(C)cccc2C)c1 | 13.8% |
| Cc1cccc(OCC(=O)Oc2ccc(Cl)cc2)c1 | 0.758% |
| Cl.O=C(NCCCc1ccccc1)[C@@H]1Cc2ccccc2CN1 | -15.1% |
| CCSc1ccccc1C(=O)Nc1ccc([N+](=O)[O-])cc1OC | -51.9% |
| NC(=O)NC(=O)COC(=O)c1ccc2noc(-c3ccccc3)c2c1 | 13.2% |
| Cc1cccc(CNC(=O)C2CCC(=O)N(C3CCCC3)C2)c1 (centres unmarked) | 32.9% |
| Cc1cccc(Oc2nc3ccccn3c(=O)c2/C=C(\C#N)C(=O)NC2CCS(=O)(=O)C2)c1C (centres unmarked) | 16.4% |
| COc1ccc(CNCCC(c2ccccc2)C2CCOC(C)(C)C2)cc1 (centres unmarked) | -52.1% |
| CCCCC(=O)OCc1nc(N)nc(Nc2ccccc2C)n1 | 14.1% |
| CCOC(=O)c1cccnc1SCC(=O)Nc1ccc(C)cc1 | -4.33% |
| CCOC(=O)c1sc2ncn(CC(=O)N(CC)CC)c(=O)c2c1C | -3.59% |
| CNc1nc(-c2ccccc2)nc(-c2ccccc2)c1C#N | 16.5% |
| CCOC(=O)Cn1cc(C(=O)C(=O)N2CCOCC2)c2ccccc21 | -7.17% |
| Cc1ccc(-n2nnc(-c3nccs3)n2)cc1 | -17.1% |

| SMILES | hERG current change (%, negative = inhibition) at 10uM |
| --- | --- |
| O=C(NCCNC(=O)c1ccccc1F)c1ccco1.O=C(O)C(=O)O | 13.9% |
| O=C(CCC(=O)c1ccc(F)cc1)Nc1cccc(S(=O)(=O)Nc2cccc(Cl)c2)c1 | 1.4% |
| Cc1ccc(NC(=O)Nc2nnc(Cc3ccc([N+](=O)[O-])cc3)s2)cc1 | 10.6% |
| Cc1c(C#N)c(N)c(C(=O)c2ccccc2)n1Cc1ccccc1 | -16.3% |
| Cn1c(C(=O)N2CCCCCC2)cc2c(=O)n(C)c3ccccc3c21 | -13.6% |
| Cc1cccc2[nH]c(-c3ccc(NC(=O)c4ccco4)cc3)nc12 | -5.91% |
| CCCS(=O)(=O)N1CCCC(C(=O)NCCc2ccccc2)C1 (centres unmarked) | -1.02% |
| Cc1ccc(C)c(OCc2cc(C(=O)N(C)Cc3nccn3C)no2)c1 | 2.12% |
| COc1cc(NC(=O)c2cccc(Cl)c2)c(OC)cc1NC(=O)CN1CCOCC1 | -27.2% |
| COc1cc([N+](=O)[O-])ccc1NC(=O)NN1CCN(C)CC1 | -40.4% |
| COc1ccccc1NC1=C(Cl)C(=O)N(c2ccccc2)C1=O | -11.6% |
| O=C(OCCN(C1=NS(=O)(=O)c2ccccc21)c1ccccc1Cl)c1ccc(Cl)cc1 | -8.94% |
| C=C1CCN(c2ccc(C(=O)O)cc2[N+](=O)[O-])CC1 | 17% |
| O=C(OCc1cccc([N+](=O)[O-])c1)c1cccnc1Cl | -16.2% |
| O=C(NCCc1ccccc1)C(=O)NCC1OCCN1S(=O)(=O)c1ccc(F)cc1 (centres unmarked) | -16% |
| CCOC(=O)C1(Cc2ccccc2)CCCN(Cc2cnn(CC)c2)C1 (centres unmarked) | -3.92% |
| COCCCNC(=O)c1ccc(Cn2c(=O)c3ccccc3n(CC(=O)NCCc3ccc(OC)c(OC)c3)c2=O)cc1 | 5.93% |
| O=C(Nc1ccc(F)cc1)c1cn(-c2ccccc2)nc1-c1ccncc1 | -45.4% |
| COC(=O)C1C(O)=C(C=Nc2ccc(N)cc2)C(=O)CC1(C)C (centres unmarked) | 4.26% |
| CC1CCN(C(=O)Cn2cc(C#N)c3ccccc32)CC1 | 11.6% |
| CCc1ccc(NC(=O)C2CC(=O)Nc3ncnn32)cc1 (centres unmarked) | 2.88% |
| CSCCC(NC(=O)c1c(C)oc2c1CCCC2)C(=O)O (centres unmarked) | 8.97% |
| COc1ccc(OC)c(NC(=S)NN2CCOCC2)c1 | 17.6% |

| SMILES | hERG current change (%, negative = inhibition) at 10uM |
| --- | --- |
| Cc1nc2ccccn2c1C(=O)N/N=C/c1cc(C)n(-c2ccc(Br)cc2)c1C | 2.03% |
| C=CCc1cccc(/C=N/NC(=O)CNc2cccc3ccccc23)c1O | -5.81% |
| COC(=O)c1ccc(NC(=O)CCc2nnc3ccc(N4CCC5(CC4)OCCO5)nn23)cc1 | 10.1% |
| OC(COc1ccc(CNCc2cccnc2)cc1)CN1CCc2ccccc2C1 (centres unmarked) | -13.5% |
| COc1ccc(NC(=O)C2Cc3ccccc3C(=O)O2)cc1 (centres unmarked) | -5.14% |
| c1cncc(-c2nc3c(ccc4ccccc43)[nH]2)c1 | 7.24% |
| CN(C)CC1CCCCC1OC(=O)c1ccc(S(=O)(=O)N(C)c2ccccc2)cc1 (centres unmarked) | 17.8% |
| O=C(Cc1ccccc1Cl)Nc1cc(S(=O)(=O)N2CCOCC2)ccc1N1CCOCC1 | -10.6% |
| Cc1c(Cl)cccc1N1C(=O)C2ON(c3ccccc3)C(c3cccnc3)C2C1=O (centres unmarked) | 4.12% |
| CNC(=S)NNC(=O)c1sc2cc(C(F)(F)F)cnc2c1-c1cccnc1 | 20.7% |
| CCOC(=O)N1CCN(C(=O)C(=O)NNC(=O)COc2ccc(Cl)cc2)CC1 | 17.2% |
| CN(C)c1ccc(C(=O)NNC(=O)Nc2ccccc2)cc1 | 16.8% |
| O=C(CCSc1ccccc1)OCn1nnc2ccccc2c1=O | 4.21% |
| Cc1nc2scc(C)n2c(=O)c1S(=O)(=O)NCCc1ccccc1 | 12% |
| Cc1cc(C)nc(NS(=O)(=O)c2ccc(NC(=S)NC(=O)C(C)C)cc2)n1 | -9.34% |
| O=C(c1ccco1)N1CCN=C1SCc1cccc(Cl)c1 | 20.1% |
| O=C(N1CCN(c2ccccc2)CC1)C12CC3CC(CC(C3)C1)C2 | -47.6% |
| CCOc1ccc(NC(=O)CN(C)CC(=O)Nc2ccc(F)c(F)c2F)cc1OCC | 0.45% |
| CC(=O)N1c2ccc(S(=O)(=O)NCCC(=O)NC3CCCCCC3)cc2CC1C (centres unmarked) | -0.561% |
| CCO[C@H]1OC(C(=O)NC2CC2)=C[C@@H](C2CC2)[C@@H]1CCCO | 12.3% |
